# According to article PMC4336329 (PLoS ONE, 2015):
# The campaign covered roughly 310,000 compounds. About 2,200 (0.71%) showed an effect of 50% or more. Effects have a minus sign here. The list shows a part of the results.
# Target: human ether-à-go-go-related gene (hERG) potassium channel (human, UniProt Q12809)
# Assay: primary screen, population patch clamp on CHO cells stably expressing hERG
# human ether-à-go-go-related gene (hERG) potassium channel, sequence (Q12809 whole entry, looked up): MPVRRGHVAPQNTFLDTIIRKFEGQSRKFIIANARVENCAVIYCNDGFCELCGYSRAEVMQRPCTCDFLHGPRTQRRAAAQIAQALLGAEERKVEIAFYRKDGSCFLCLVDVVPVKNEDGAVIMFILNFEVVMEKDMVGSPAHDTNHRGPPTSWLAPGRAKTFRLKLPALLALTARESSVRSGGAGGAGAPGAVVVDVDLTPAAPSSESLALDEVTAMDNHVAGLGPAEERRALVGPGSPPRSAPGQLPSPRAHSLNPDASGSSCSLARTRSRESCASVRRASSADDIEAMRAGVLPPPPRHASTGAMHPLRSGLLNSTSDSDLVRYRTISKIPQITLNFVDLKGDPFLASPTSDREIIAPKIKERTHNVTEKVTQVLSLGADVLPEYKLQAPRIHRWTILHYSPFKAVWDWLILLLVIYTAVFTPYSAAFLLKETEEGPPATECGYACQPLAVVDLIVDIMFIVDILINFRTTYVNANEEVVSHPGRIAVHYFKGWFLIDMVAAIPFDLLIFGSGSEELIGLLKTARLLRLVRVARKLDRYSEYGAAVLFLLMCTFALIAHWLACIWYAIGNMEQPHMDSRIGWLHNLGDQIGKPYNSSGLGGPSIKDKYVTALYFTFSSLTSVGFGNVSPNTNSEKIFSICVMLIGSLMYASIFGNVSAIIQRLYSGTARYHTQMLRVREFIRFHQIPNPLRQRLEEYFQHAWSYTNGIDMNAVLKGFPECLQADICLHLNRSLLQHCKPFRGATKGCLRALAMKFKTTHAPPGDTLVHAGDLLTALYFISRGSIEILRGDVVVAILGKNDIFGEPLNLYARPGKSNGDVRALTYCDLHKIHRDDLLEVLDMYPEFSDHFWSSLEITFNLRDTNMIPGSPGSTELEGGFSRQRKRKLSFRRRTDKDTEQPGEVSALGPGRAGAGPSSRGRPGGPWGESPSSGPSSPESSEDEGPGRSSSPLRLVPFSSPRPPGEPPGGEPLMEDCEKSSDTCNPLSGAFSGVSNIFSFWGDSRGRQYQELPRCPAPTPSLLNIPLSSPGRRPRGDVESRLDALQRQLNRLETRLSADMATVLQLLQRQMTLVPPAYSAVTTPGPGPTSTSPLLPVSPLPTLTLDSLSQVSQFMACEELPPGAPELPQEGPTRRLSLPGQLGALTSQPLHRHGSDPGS
row,Structure (SMILES),"hERG current change (%, negative = inhibition) at 1uM"
1,Cc1ccc(OCC(O)CN2CCN(c3ccc(C)cc3)CC2)cc1 (stereo not drawn),-3.83%
2,COc1ccc(-c2cc(C(F)F)n3ncc(C(=O)Nc4ccc(C(=O)N5CCOCC5)cc4)c3n2)cc1,8.74%
3,Oc1ccc(N2CCN(c3nnnn3-c3ccccc3)CC2)cc1,3.34%
4,Cc1occc1C(=O)Nc1ccccc1C#N,13.9%
5,CC1CCCN(C(=S)Nc2ccc(Nc3ccccc3)cc2)C1 (stereo not drawn),13.9%
6,COc1cc(/C=N/NC(=O)NC23CC4CC(CC(C4)C2)C3)ccc1OCC(N)=O,1.53%
7,Cc1[nH]c2ccc(F)cc2c1CCN1C(=O)OC(C)(C)C1(C)O (stereo not drawn),3.77%
8,Cn1c(=O)c(Oc2ccc(F)cc2)c(O)c2ccccc21,3.59%
9,O=C(O)CSc1cn(Cc2ccccc2)c2ccccc12,15.6%
10,COc1ccc(CNC(=O)/C=C/c2ccccc2[N+](=O)[O-])cc1,15%
11,COc1ccc(CN2CCN(C(=O)Cn3c(=O)oc4cc(Cl)ccc43)CC2)c(OC)c1OC,3.64%
12,CCc1nnc(NC(=O)C2CCN(c3nccc(C)n3)CC2)s1,14.4%
13,CCN(CC(=O)NCCc1ccc(S(N)(=O)=O)cc1)Cc1nc2ccccc2c(=O)[nH]1,17.9%
14,Cc1c(C)c2ccc(OCC(=O)Nc3ccc(CN4CCOCC4)cc3)cc2oc1=O,9.42%
15,Cc1nc(NC(=O)c2ccccc2)nc2cc3c(cc12)OCO3,5.52%
16,COc1cc(CCNC(=O)c2ccccc2NC(=O)C2=C(C)OCCS2)cc(OC)c1OC,11.7%
17,O=S(=O)(c1ccc(NC(=S)NC2CCCC2)cc1)N1CCCC1,11.5%
18,CCCn1c(SCC(=O)NNC(=O)c2ccc(C)cc2)nnc1C(C)C,3.29%
19,COc1ccc(-c2cc3c(=O)n(CC(=O)Nc4ccc(Cl)cc4)ncn3n2)cc1,24%

row,Structure (SMILES),"hERG current change (%, negative = inhibition) at 1uM"
1,Cc1cc2ncn(S(=O)(=O)N3CCOCC3)c2cc1C,7.78%
2,COc1ccc(S(=O)(=O)n2nc(OC(=O)c3ccncc3)cc2N)cc1,19.9%
3,O=C(Nc1ccc(C(F)(F)F)cc1)N1CCN(C(=O)c2ccco2)CC1,-7.25%
4,C1COCCO1.Cc1ccc2nc(Nc3nc(C)cc(-c4ccccc4)n3)[nH]c(=O)c2c1,10.4%
5,O=C(COC(=O)/C=C/c1ccc(Cl)cc1)NCCc1ccccc1,13.5%
6,O=C(CN1CCN(c2ccccc2)CC1)Nc1ccc(Oc2ccccc2)cc1,17.2%
7,COc1ccc(CC(=S)N2CCOCC2)cc1,8.89%
8,CC1=C(C(=O)OCc2ccccc2)C(c2ccc(C(F)(F)F)cc2)NC(=O)N1CCCCCC(=O)O (stereo not drawn),16.1%
9,CCCCn1c(N)c(N(CCOC)C(=O)c2ccc(OCc3c(C)noc3C)cc2)c(=O)[nH]c1=O,19%
10,C#CCOC(=O)C[N+](C)(C)CC#Cc1ccccc1.[Cl-],9.91%
11,C(=N\N1CCN(Cc2ccccc2)CC1)/c1cccs1,-1.33%
12,CC(Cl)c1cc(-c2ncc(C(F)(F)F)cc2Cl)no1 (stereo not drawn),5.32%
13,CCCCn1c(=S)[nH]c2ncccc2c1=O,-2.14%
14,COc1ccccc1CNC(=O)C1Cc2ccccc2C(=O)O1 (stereo not drawn),-2.63%
15,O=C(Nc1ccccc1C(F)(F)F)c1ccsc1,5.49%
16,CCN(CC)CCCNC(=O)C1c2ccccc2C(=O)N(CCOC)C1c1ccc(F)cc1 (stereo not drawn),12%
17,CCOc1ccc(-c2ccc3nnc(SCC(=O)NCC4CCCO4)n3n2)cc1 (stereo not drawn),12.1%
18,CC(=O)c1ccc(N(CC(=O)NC2CCCC2)C(=O)c2csnn2)cc1,3.39%
19,Cc1cc2ccccn2c1C(=O)c1ccc(Cl)cc1,-3.2%

row,Structure (SMILES),"hERG current change (%, negative = inhibition) at 1uM"
1,COc1cccc(C2c3[nH]c4ccccc4c3CCN2Cc2cnc(C)s2)c1OC (stereo not drawn),12.5%
2,CC(=O)N(C)c1ccc(NC(=O)C(c2ccccc2)c2ccccc2)cc1,-2.74%
3,CS(=O)(=O)N1CCN(c2ccccc2F)CC1,7.96%
4,O=C(C1=C[C@@H]2[C@H]3C(=O)N(c4ccccc4Cl)C(=O)[C@H]3[C@@H](C(=O)c3ccc(Cl)cc3)N2C=C1)c1ccccc1,12.7%
5,CCOc1ccc(OCCOCCN2CCOCC2)cc1.O=C(O)C(=O)O,6.21%
6,COc1ccc(S(=O)(=O)NCCc2cn3nc(C)c(C)nc3n2)cc1C,25%
7,Cc1cc(OCCCC(=O)Nc2nnc(C3CC3)s2)ccc1Cl,20.9%
8,CC(C)[C@@H](C(=O)NCC1CCCO1)N1C(=O)N2CCc3c([nH]c4ccccc34)[C@@]2(C)C1=O (stereo partly drawn),8.5%
9,CCc1ccc(/C=C/c2c([N+](=O)[O-])c(=O)n(C)c(=O)n2C)cc1,6.39%
10,CCCCN(C)CCC(=O)Nc1ccc(Cl)cc1.Cl,2.65%
11,Cc1nn(C)c(C)c1CNC(=O)Nc1cccc(Cl)c1C,10.7%
12,C/C(=N/NC(=O)c1cccs1)c1cccc(N)c1,26%
13,Cc1onc(-c2ccccc2)c1C(=O)N1CCN(c2ncccc2C(F)(F)F)CC1,9.72%
14,N/C(=N\OC(=O)CCc1ccccc1)c1ccccc1Cl,8.76%
15,Cc1cccc(C)c1OCc1nnc(SCC(=O)NCc2ccccc2)o1,-9.14%
16,C(=N\N1CCN(C2c3ccccc3-c3ccccc32)CC1)/c1cccs1,5.85%
17,O=C(Nc1cccc(F)c1)NC1(C(=O)N2CCOCC2)CCCCC1,8.29%
18,Cc1cc(Nc2cccc([N+](=O)[O-])c2)c2ccccc2n1,-36.7%
19,CCN(CC)c1ccc(S(=O)(=O)N(CC)CC)cc1NC(=O)C1CCCC1,9.69%
